According to the supplement of paper PMC4967469:

What was measured:
Assay in all cases: Viability of human cancer cell lines after 72 h of drug (GDSC screen)
[1] = compound: CC(=O)Nc1nc(C)c(-c2ccc(Cl)c(S(=O)(=O)NCCO)c2)s1 [PIK-93]; details: top dose 20 µM
Protocol: (§1)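 Human cancer cell lines in 384-well plates, medium with 10% serum, drug for 72 h over a 256-fold dose range (nine 2-fold or five 4-fold steps up to the top dose). Adherent lines were fixed and stained with the nucleic acid dye Syto60, suspension lines read with resazurin; signal relative to control wells, capped at 0 and 100%. One two-parameter sigmoid per drug and line, fitted in a mixed model over all curves with the slope shared within a line.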

[2] = compound: COc1cc(/C=C/C(=O)N2CCC=CC2=O)cc(OC)c1OC [piperlongumine]; details: top dose 10 µM
Protocol: as §1

[3] = compound: COc1cc2ncn(-c3cc(OCc4ccccc4C(F)(F)F)c(C(N)=O)s3)c2cc1OC [GW843682X]; details: top dose 0.256 µM
Protocol: as §1

[4] = compound: Cn1cc(/C=C2\C(=O)Nc3cccnc32)c2ccccc21 [GW 441756]; details: top dose 2 µM; top dose inferred
Protocol: as §1

[5] = compound: O=C(/C=C/c1ccccc1)NC(NC(=S)Nc1cccc2cccnc12)C(Cl)(Cl)Cl [Salubrinal]; details: top dose 16 µM; top dose inferred
Protocol: as §1

[6] = compound: CC1(C)CCC(c2ccc(Cl)cc2)=C(CN2CCN(c3ccc(C(=O)NS(=O)(=O)c4ccc(N[C@H](CCN5CCOCC5)CSc5ccccc5)c(S(=O)(=O)C(F)(F)F)c4)cc3)CC2)C1 [ABT-263]; details: top dose 2 µM; top dose inferred
Protocol: as §1

## MOLT-4 (lymphoblastic leukaemia, suspension)
[1]
  AUC: 0.706
  IC50: 4.19 µM
[2]
  AUC: 0.787
  IC50: 3.5 µM
[3]
  AUC: 0.445
  IC50: 0.0117 µM
[4]
  AUC: 0.98
  IC50: > 2 µM
[5]
  AUC: 0.863
  IC50: 9.79 µM

## NB12 (neuroblastoma, adherent)
[1]
  AUC: 0.901
  IC50: > 20 µM
[6]
  AUC: 0.605
  IC50: 0.267 µM
[2]
  AUC: 0.771
  IC50: 5.2 µM
[4]
  AUC: 0.976
  IC50: > 2 µM
[5]
  AUC: 0.956
  IC50: > 16 µM

## NCI-H128 (small cell lung carcinoma, suspension)
[3]
  AUC: 0.973
  IC50: > 0.256 µM
[5]
  AUC: 0.936
  IC50: > 16 µM

## NCI-H716 (large intestine, suspension)
[1]
  AUC: 0.851
  IC50: > 20 µM
[2]
  AUC: 0.742
  IC50: 3.78 µM
[3]
  AUC: 0.975
  IC50: > 0.256 µM
[4]
  AUC: 0.969
  IC50: > 2 µM
[5]
  AUC: 0.956
  IC50: > 16 µM

## NCI-H748 (small cell lung carcinoma, suspension)
[1]
  AUC: 0.906
  IC50: > 20 µM
[3]
  AUC: 0.888
  IC50: > 0.256 µM
[5]
  AUC: 0.919
  IC50: > 16 µM

## NCI-H1581 (large cell lung carcinoma, semi-adherent)
[1]
  AUC: 0.92
  IC50: > 20 µM
[2]
  AUC: 0.779
  IC50: 3.76 µM
[3]
  AUC: 0.634
  IC50: 0.0362 µM
[4]
  AUC: 0.977
  IC50: > 2 µM
[5]
  AUC: 0.914
  IC50: > 16 µM

## NCI-H1666 (lung adenocarcinoma, semi-adherent)
[1]
  AUC: 0.913
  IC50: > 20 µM
[2]
  AUC: 0.81
  IC50: 5.87 µM
[3]
  AUC: 0.987
  IC50: > 0.256 µM
[4]
  AUC: 0.965
  IC50: > 2 µM
[5]
  AUC: 0.984
  IC50: > 16 µM

## NCI-H1963 (small cell lung carcinoma, suspension)
[1]
  AUC: 0.967
  IC50: > 20 µM
[3]
  AUC: 0.384
  IC50: 0.00804 µM
[4]
  AUC: 0.991
  IC50: > 2 µM
[5]
  AUC: 0.828
  IC50: 8.22 µM

## NCI-H2171 (small cell lung carcinoma, suspension)
[1]
  AUC: 0.605
  IC50: 2.33 µM
[3]
  AUC: 0.971
  IC50: > 0.256 µM
[5]
  AUC: 0.971
  IC50: > 16 µM

## NCI-H2196 (small cell lung carcinoma, adherent)
[1]
  AUC: 0.822
  IC50: 12.5 µM
[3]
  AUC: 0.926
  IC50: > 0.256 µM
[5]
  AUC: 0.971
  IC50: > 16 µM

## NCI-H2227 (small cell lung carcinoma, semi-adherent)
[1]
  AUC: 0.72
  IC50: 5.75 µM
[6]
  AUC: 0.768
  IC50: 0.847 µM
[2]
  AUC: 0.938
  IC50: > 10 µM
[4]
  AUC: 0.957
  IC50: > 2 µM
[5]
  AUC: 0.961
  IC50: > 16 µM

## NK-92MI (lymphoid neoplasm, suspension)
[3]
  AUC: 0.734
  IC50: 0.0702 µM
[5]
  AUC: 0.896
  IC50: > 16 µM

## NTERA-2 cl.D1 (testis, adherent)
[1]
  AUC: 0.902
  IC50: > 20 µM
[2]
  AUC: 0.51
  IC50: 0.664 µM
[3]
  AUC: 0.549
  IC50: 0.0217 µM
[4]
  AUC: 0.959
  IC50: > 2 µM
[5]
  AUC: 0.847
  IC50: 11.6 µM

## RC-K8 (B-cell lymphoma, suspension)
[1]
  AUC: 0.858
  IC50: 13.1 µM
[6]
  AUC: 0.723
  IC50: 0.485 µM
[2]
  AUC: 0.984
  IC50: > 10 µM
[4]
  AUC: 0.993
  IC50: > 2 µM
[5]
  AUC: 0.958
  IC50: > 16 µM

## RS4-11 (leukaemia, suspension)
[1]
  AUC: 0.362
  IC50: 0.54 µM
[2]
  AUC: 0.823
  IC50: 5.26 µM
[3]
  AUC: 0.426
  IC50: 0.0102 µM
[5]
  AUC: 0.888
  IC50: 15.4 µM

## SCC-3 (B-cell lymphoma, suspension)
[1]
  AUC: 0.951
  IC50: > 20 µM
[3]
  AUC: 0.701
  IC50: 0.0492 µM
[5]
  AUC: 0.949
  IC50: 16 µM

## SIG-M5 (acute myeloid leukaemia, suspension)
[1]
  AUC: 0.162
  IC50: 0.174 µM
[3]
  AUC: 0.559
  IC50: 0.0223 µM
[5]
  AUC: 0.87
  IC50: 8.97 µM

## SNU-C2B (large intestine, adherent)
[1]
  AUC: 0.868
  IC50: > 20 µM
[6]
  AUC: 0.963
  IC50: > 2 µM
[2]
  AUC: 0.7
  IC50: 2.75 µM
[3]
  AUC: 0.437
  IC50: 0.0102 µM
[4]
  AUC: 0.973
  IC50: > 2 µM

## SU-DHL-1 (anaplastic large cell lymphoma, suspension)
[1]
  AUC: 0.933
  IC50: 16.7 µM
[3]
  AUC: 0.805
  IC50: 0.089 µM
[5]
  AUC: 0.985
  IC50: > 16 µM

## SW872 (soft tissue, adherent)
[1]
  AUC: 0.878
  IC50: 17 µM
[2]
  AUC: 0.751
  IC50: 3.02 µM
[3]
  AUC: 0.594
  IC50: 0.0281 µM
[5]
  AUC: 0.952
  IC50: > 16 µM

## SW954 (urogenital system, adherent)
[1]
  AUC: 0.595
  IC50: 2.29 µM
[3]
  AUC: 0.46
  IC50: 0.0124 µM
[4]
  AUC: 0.971
  IC50: > 2 µM
[5]
  AUC: 0.964
  IC50: > 16 µM

## SW982 (soft tissue, adherent)
[1]
  AUC: 0.749
  IC50: 6.64 µM
[6]
  AUC: 0.985
  IC50: > 2 µM
[2]
  AUC: 0.661
  IC50: 1.78 µM
[3]
  AUC: 0.573
  IC50: 0.0256 µM
[4]
  AUC: 0.985
  IC50: > 2 µM

## TALL-1 (T-cell lymphoblastic leukaemia, suspension)
[1]
  AUC: 0.933
  IC50: > 20 µM
[3]
  AUC: 0.469
  IC50: 0.0132 µM
[5]
  AUC: 0.937
  IC50: > 16 µM

## TE-11 (oesophagus, adherent)
[1]
  AUC: 0.966
  IC50: > 20 µM
[6]
  AUC: 0.919
  IC50: > 2 µM
[2]
  AUC: 0.873
  IC50: 8.16 µM
[3]
  AUC: 0.43
  IC50: 0.0105 µM
[4]
  AUC: 0.985
  IC50: > 2 µM

## TE-441-T (rhabdomyosarcoma, adherent)
[1]
  AUC: 0.835
  IC50: 12.5 µM
[3]
  AUC: 0.898
  IC50: > 0.256 µM
[5]
  AUC: 0.798
  IC50: 7.29 µM

## TK (B-cell lymphoma, suspension)
[1]
  AUC: 0.738
  IC50: 5.56 µM
[6]
  AUC: 0.806
  IC50: 0.914 µM
[2]
  AUC: 0.82
  IC50: 5.11 µM
[4]
  AUC: 0.988
  IC50: > 2 µM
[5]
  AUC: 0.888
  IC50: 15.3 µM

## UACC-812 (breast, adherent)
[1]
  AUC: 0.962
  IC50: > 20 µM
[5]
  AUC: 0.986
  IC50: > 16 µM

## VAL (B-cell lymphoma, suspension)
[1]
  AUC: 0.645
  IC50: 3.16 µM
[6]
  AUC: 0.631
  IC50: 0.288 µM
[2]
  AUC: 0.815
  IC50: 5.52 µM
[4]
  AUC: 0.75
  IC50: 0.657 µM
[5]
  AUC: 0.835
  IC50: 10.6 µM

By IC50 is meant the dose at which the fit gives 50% viability; where the fit passes the top or lowest dose, that dose stands as a limit. For AUC the same curve is integrated over the 256-fold range of doses and scaled to a fraction; values near 1 show little effect. For part of these data: An inferred top dose comes from the curve model; the source does not state it.
